The text below walks through data of ChEMBL document CHEMBL4888484, “Replenishing the malaria drug discovery pipeline: Screening and hit evaluation of the MMV Hit Generation Library 1 (HGL1) against asexual blood stage Plasmodium falciparum ,using a nano luciferase reporter read-out” (2022).

Hit rate of the full screen: of about 150,000 compounds, about 540 (0.36%) showed an effect of 50% or more. This is one part of the list.

In this assay the test system is Plasmodium falciparum. The assay can be described thus: Primary screen in NF54 nanoGlo assay, in single point, at 2uM, 72h; a lower Z score goes with more inhibition. To be noted: timepoint 72 hour. It is filed as functional, Erythrocyte.
In general, % Inhibition refers to the change of the read-out against control, counted positive when it falls. Regarding `CCOc1ccc(-c2cn3ccn(-c4ccc(Cl)cc4)c(=O)c3n2)cc1`, the “% Inhibition” value worked out at 29% and the Z score is -3.8.
The matching figures for `COCC(=O)NC(C)(C)CN(C)Cc1ccccc1`: -5% and 0.48.
The matching figures for `COc1ccc([C@@]2(C(=O)N3CC(O)C3)CC2(C)C)cc1`: 0% and -0.02.
`CC[C@H]1CN(C(=O)c2c[nH]c3cccnc23)CCCO1`: the “% Inhibition” value is -1% and the Z score turned out to be 0.11.
In the same order, the values of `CN1CCCN(CC(=O)N2CCN(C)C[C@@H]2c2ccccc2)CC1` are -10% and 1.28.
In the same order, the values of `Cc1ccc(CNC(=O)N2CCS(=O)(=O)CC[C@@H]2C)c2ccccc12` are 32% and -3.97.
The matching figures for `O=C(N[C@@]1(C(F)(F)F)N=C(c2ccccc2)N(C2CCCCC2)C1=O)c1cccnc1`: -5% and 0.51.
In the case of `C[C@H](NC(=O)c1ccc2[nH]cnc2c1)C(=O)N1CCCCC1`, the “% Inhibition” value turned out to be 0% and the Z score is -0.06.
In the same order, the values of `COc1cc(-c2onc(C)c2C(=O)NC2CC(C)(C)N(C)C(C)(C)C2)cc(OC)c1OC` are -12% and 2.26.
As to `CC1CN(CC2CCCO2)CCC1NC(=O)c1cc(F)ccc1O` (stereo unspecified), the “% Inhibition” value is -8% and the Z score is 0.74.
The matching figures for `Cc1cc(N2CCN(C)C(=O)[C@@H]2C)nc(N)n1`: 15% and -2.17.
Turning to `Cc1c(CNc2ccc(NC(=O)c3ccccc3)nc2)cc(C#N)n1C`, the “% Inhibition” value is recorded as -10% and the Z score is 0.95.
On to `O=c1c(Br)cncn1CCOc1ccccc1`, for which the “% Inhibition” value was -4% and the Z score turned out to be 0.52.
With `COc1ccc(OC)c(-c2csc(NC(=O)CCc3c(C)[nH]c(=O)c(C#N)c3C)n2)c1`, the “% Inhibition” value was found to be 1% and the Z score is -0.28.
The matching figures for `O=C([C@@H]1Cc2ccccc21)N(Cc1ccccc1)CC1CCOCC1`: -16% and 1.74.
The matching figures for `Cc1ccc(-c2nc(C)c(C(=O)O)cc2C#N)c(-n2cccn2)c1`: -9% and 1.5.
The matching figures for `Cc1nc2ccccc2n1CCNC[C@H]1CCC=CO1`: -11% and 1.52.
In the case of `CC1(C)C[C@@H](c2noc(-c3cc4c(s3)CCOC4)n2)CCO1`, the “% Inhibition” value turned out to be 8% and the Z score is listed as -1.46.
The matching figures for `CCn1nc(C(=O)N2CCCCCC2)c2c1CC[C@H](NC1CCCC1)C2`: -7% and 0.88.
In the case of `C[C@H](OC1CCCCCC1)C(=O)Nc1nc2ncccc2[nH]1`, the “% Inhibition” value amounted to 26% and the Z score is given as -2.94.
The matching figures for `CC(=O)c1ccc(S(=O)(=O)N2CCN(c3ncccc3NC(=O)c3ccc4c(c3)OCO4)CC2)cc1`: 7% and -0.77.
The matching figures for `CCn1nncc1CNc1ncccc1Cl`: -6% and 0.86.
On to `CC[C@](C)(O)CNC(=O)c1ccc(C)cc1F`, for which the “% Inhibition” value is 10% and the Z score is listed as -1.45.
The matching figures for `CC(C)C(=O)N1CCc2ccc(OCc3nc(C(=O)Nc4ccc(F)cc4)cs3)cc2[C@@H]1c1cccc(F)c1`: -9% and 1.45.
`COc1ccc(CNC(=O)CCc2nc3c(C)nn(-c4ccc(C)cc4)c3n(C)c2=O)cc1`: the “% Inhibition” value worked out at 14% and the Z score is -2.07.
Take `CCc1cc(C)c(C(=O)N(C)Cc2nccn2C)o1`: the “% Inhibition” value is -8% and the Z score is 1.19.
As to `CCn1c(C)c(-c2nc(C3CC3)no2)c(S(=O)(=O)N[C@@H](C)c2ccccn2)c1C`, the “% Inhibition” value is -2% and the Z score was 0.37.
In the same order, the values of `COc1ccc(CN2CCCN(Cc3ccc(OC)cc3)C2c2ccccc2Br)cc1` are 35% and -3.97.
Consider `c1cc2c(nc1CNCc1cn3c(n1)CCCC3)CCC2`, for which the “% Inhibition” value came out at 18% and the Z score is -2.23.
In the same order, the values of `C[C@](O)(CNc1cccc(Br)c1C#N)C1CC1` are 17% and -2.21.
In the same order, the values of `CCc1nc(CN(C)CCCn2cccn2)n[nH]1` are -11% and 1.29.
In the same order, the values of `COc1cc(C(=O)Nc2nnc(-c3cc(C)nn3C)o2)cc(OC)c1OC` are -2% and 0.35.
Consider `CCN1CCc2nc(-c3ccc(F)cc3)n(CC(=O)Nc3cc(C)ccc3C)c(=O)c2C1`, for which the “% Inhibition” value is listed as -1% and the Z score worked out at 0.16.
The matching figures for `Cc1cnc(C(=O)N2CCn3nc(CCC(=O)NC4CC4)cc3C2)cn1`: -9% and 1.6.
The matching figures for `COc1cc(F)c(CN2CCC([C@H](C)N3CCN(C)CC3)CC2)cc1OC`: -20% and 1.85.
In the same order, the values of `C[C@H]1[C@@H](NC(=O)Nc2ccncc2)CCS1(=O)=O` are 4% and -0.59.
As to `COCCC(C)NC(C)c1ccc(S(N)(=O)=O)cc1F` (stereo unspecified), the “% Inhibition” value is 0% and the Z score is given as 0.04.
In the same order, the values of `Cc1ccc(C(=O)N2C[C@H]3CCN(C(C)C)C[C@@]3(CO)C2)cc1F` are -18% and 2.16.
With `CCOC(=O)C1CCN(C(=O)c2nn(-c3ccc(C)c(Cl)c3)c(=O)n(Cc3cccc(C)c3)c2=O)CC1`, the “% Inhibition” value is -15% and the Z score is reported as 1.42.
In the same order, the values of `Cc1cc(C(=O)Nc2cc(-c3ccccc3Br)no2)on1` are -5% and 0.82.
The matching figures for `COc1ccc(-n2nnc3c(=O)n(Cc4cccc5ccccc45)cnc32)cc1OC`: -10% and 1.88.
On to `O=C(c1cc(S(=O)(=O)N2CCCCC2)ccc1N1CCCC1)N1CCCc2ccccc21`, for which the “% Inhibition” value is -10% and the Z score was 1.69.
The matching figures for `CCN(CC)S(=O)(=O)c1ccc(F)c(C(=O)OCCNC(C)=O)c1`: -10% and 0.84.
The matching figures for `CCCN(C(=O)c1[nH]nc(CC)c1C)[C@H]1CCCC[C@@H]1O`: -8% and 0.78.
The matching figures for `C[C@H](Nc1ncc(F)c(-c2ccsc2)n1)C(=O)NCCF`: -1% and 0.13.
For the compound `COC[C@H]1CCCN1S(=O)(=O)N1CCC(c2cc[nH]n2)CC1`, the “% Inhibition” value is -7% and the Z score was 0.81.
For `Cc1c2c(=O)n(-c3nc4ccccc4s3)n(Cc3ccc(F)cc3)c2cc(=O)n1N1CCOCC1`, the “% Inhibition” value came out at 30% and the Z score is on record as -3.45.
In the same order, the values of `c1cnc2c(c1)CN(c1cc(C3CC3)nc(C3CC3)n1)CCO2` are 0% and -0.02.
In the same order, the values of `COc1ccc(-c2cn3cc(C(=O)N4CCC[C@@H]4C)nc3c(=O)n2C)c(F)c1` are 17% and -3.3.
The matching figures for `CCN(CC)C(=O)N1C[C@@H]2C[C@H](NS(=O)(=O)c3cccnc3)[C@H]1C2`: 34% and -3.89.
On to `CC(C)(C)N1CC[C@H](NC(=O)NCCc2cnc3c(Cl)cnn3c2)C1`, for which the “% Inhibition” value is -5% and the Z score stood at 0.85.
In the same order, the values of `Cc1ccc(C(=O)N2CC[C@H](c3nc(C)n[nH]3)[C@H](NC(=O)C3CCOCC3)C2)cc1` are -8% and 1.01.
In the case of `N#Cc1cnc(NC(=O)c2ccco2)s1`, the “% Inhibition” value is -6% and the Z score stood at 0.63.
In the same order, the values of `CC(=O)c1nc(NC(=O)C[C@@H](Cc2ccc(Cl)cc2)C(=O)Nc2nc(C(C)=O)c(C)s2)sc1C` are -34% and 3.99.
The matching figures for `CC(=O)Nc1cccnc1NC(=O)CC1=CCCCC1`: -9% and 1.64.
In the same order, the values of `O=S(=O)(Cc1ccccc1Cl)N1CCCN2CCC[C@H]2C1` are -5% and 0.42.
Consider `COCCNC(=O)c1coc(CN(Cc2cccc(OC)c2)[C@@H](C)C(C)C)n1`, for which the “% Inhibition” value is listed as -17% and the Z score came out at 2.36.
The matching figures for `C=CCN(Cc1nccs1)[C@H]1CCS(=O)(=O)C1`: -8% and 1.27.
On to `COc1ccccc1C(=O)N1CCc2cc(S(=O)(=O)N3CCCC3)ccc21`, for which the “% Inhibition” value was -2% and the Z score is given as 0.19.
The matching figures for `CCCn1ncc(C(=O)N2CC(=O)N(CC(F)(F)F)C2)c1C1CC1`: 2% and -0.27.
With `CC(C)N(C(=O)c1ccnn1C(C)C)c1ccc(Br)cn1`, the “% Inhibition” value is -1% and the Z score is listed as 0.16.
In the same order, the values of `O=C1CCC2(CCN(S(=O)(=O)c3cccnc3)CC2)CN1Cc1cccnc1` are 4% and -0.66.
With `O[C@H](COCc1ccco1)CN1CCN(c2nccs2)CC1`, the “% Inhibition” value is -5% and the Z score turned out to be 0.89.
The matching figures for `CC(C)[C@@H]1CN(Cc2cccc(C(=O)O)c2)CCCO1`: -4% and 0.76.
In the same order, the values of `Cc1noc2ncc(NC(=O)CCC3CCC(C4OCCO4)O3)cc12` (stereo unspecified) are -2% and 0.22.
Turning to `CCOc1ccnc(NCCc2nc(CC)no2)n1`, the “% Inhibition” value is on record as 11% and the Z score is given as -1.49.
In the same order, the values of `Oc1ccc(-c2nccn2-c2cccc3cnccc23)cc1Cl` are -2% and 0.23.
Regarding `O=C(c1ccc2ncsc2c1)N1C[C@@H]2CC[C@H]1CN(C1CCOCC1)C2`, the “% Inhibition” value is reported as -8% and the Z score came to 1.07.
The matching figures for `Cc1ccc2c(c1)[C@@H](NS(=O)(=O)c1ccc(N)cc1)CO2`: -3% and 0.46.
In the same order, the values of `Cc1ccccc1CC(=O)N[C@H]1CC(=O)N(CCN2CCOCC2)C1` are 1% and -0.08.
The matching figures for `Cc1cc(CN(C)C(=O)c2cc(C)sc2C)no1`: -12% and 2.1.
For `CCn1ncc(NC(=O)c2cc(C)on2)c1C`, the “% Inhibition” value stood at 0% and the Z score is reported as 0.03.
The matching figures for `Cc1nnc(-c2cc(S(=O)(=O)N3CCN(C(=O)c4ccco4)CC3)c[nH]2)o1`: -8% and 1.52.
Consider `C[C@@H](CC(=O)N(C)C)c1ccccc1F`, for which the “% Inhibition” value is recorded as -2% and the Z score stood at 0.28.
The matching figures for `CO[C@H]1C[C@H]2CC(NCc3ccc(C)nc3)C[C@H]2C1` (stereo partly specified): -1% and 0.19.
The matching figures for `O[C@H](COc1ccccc1-n1cccn1)CN1CCCC1`: 1% and -0.08.
In the same order, the values of `Cc1nn(C)c2nc(NCCn3cc(Cl)cn3)sc12` are -6% and 1.07.
For the compound `CN(C(=O)c1coc(CNC(=O)OC(C)(C)C)c1)c1ccccc1`, the “% Inhibition” value was -16% and the Z score came out at 2.18.
In the same order, the values of `Cc1c(Cl)ccc2c1NC(=O)[C@]21[C@@H](C(=O)c2ccccc2)[C@]2(C(=O)Nc3ccccc32)[C@@H]2CCCN21` are 9% and -1.35.
The matching figures for `C[C@@H](CC#N)N(C)C(=O)C(=O)Nc1nc(-c2ccccn2)cs1`: -15% and 2.42.
In the same order, the values of `OCc1ccc(CN(CC2CCN(C3Cc4ccccc4C3)CC2)C[C@H]2CCCO2)o1` are -10% and 0.92.
For `COc1cccc(NC(=O)Cn2c(N3CCC(C)CC3)nc(C)cc2=O)c1`, the “% Inhibition” value was -5% and the Z score is reported as 0.79.
`O=C(c1cccc2[nH]c(C(F)F)nc12)N1CCO[C@]2(CCOC2)C1`: the “% Inhibition” value came out at 1% and the Z score is recorded as -0.17.
